# Assay results from paper PMC12136788.
# The other results are listed elsewhere or left out.
# B1: chr1:220276048:220276049:+_ENSG00000067704_ENST00000302637|hu_hu|hu_hu_hu_mus_True|38_88 (ssRNA)
# RNA: GGGAGUUCUACAGUCCGACGAUCGCAAAUUGCCUGGUUGGCGGGAAUCGUCCAAGGCUGGGUGGUCCAAACUAAAACGCUAACAGGGGAUGAGGCAUCUAUAAGAGACUCCAACUUCGGAGGAGGUCUCAGGAGGGGGAAUCUCAACAGAGGAUUGAGCAUCA
# B2: chr1:169204414:169204415:-_ENSG00000143156_ENST00000367811|hu_hu|FALSE|FALSE (ssRNA)
# RNA: GGGAGUUCUACAGUCCGACGAUCCACCAUGUCAUGAUAUUCGGUCACUACUCCUUUAUAAACUUCAUAGAAUUCCUCAACAUUAACCCGAUCCAUAUUGAACAUCUGCAUAGCUGAGAUUUCAAAACCUGCAUCUCGGAUAGCCAACAGAGGAUUGAGCAUCA
# B3: chr7:116558156:116558157:+_ENSG00000198898_ENST00000458284|hu_hu|FALSE|FALSE (ssRNA)
# RNA: GGGAGUUCUACAGUCCGACGAUCAAAAACUUUUAACCAUAAACUAGAAGAAUCAUCUCUUCAUUGUAAGAAAGAAAGGCCUAACAGAAAGACAUUUAAACUAAACUGAUUUUCAAUCCUCUUAGAACAAACAAAAUGAAAAAUCAACAGAGGAUUGAGCAUCA
# B4: chr1:145439819:145439820:+_ENSG00000117289_ENST00000369317|hu_mus|FALSE|FALSE (ssRNA)
# RNA: GGGAGUUCUACAGUCCGACGAUCUUUCUUUGCCUCUUGAGUUGGCUGGCUGGGGCGAUCGAGAAAAGCCUUCACCCAGUAGUCUACGCAACCAUAUUUUCCUUUAAAGGAUGUUCCCAGGGGCCCUUGAGGAAGCUCGAAGCCCAACAGAGGAUUGAGCAUCA
# B5: 91406394_91406514_697_3pUTR_ENSG00000122482_ENST00000337393|human|control|control (ssRNA)
# RNA: GGGAGUUCUACAGUCCGACGAUCGUGUUGACUUGCUUUCUGUGGUGUAGACAGCUGAAGAUCAGCUGCUACCUUCAAAGUUGAACAAGAUUCUGUUGUUGGCUGAUCCACAGGCUGUCCAGUGGUUAAUGAAACACUGCCUUUCAACAGAGGAUUGAGCAUCA
# B6: chr1:55209531:55209532:+_ENSMUSG00000025979_ENSMUST00000162364|mus_mus|FALSE|FALSE (ssRNA)
# RNA: GGGAGUUCUACAGUCCGACGAUCGUUAUCCUUCGACAUCAGAUUAUAUUUCAUCACAAAUUUGGUAAACCGAUGACAUAAAAAUGUUUCAUUUUCAUAUUCAUCAAAUAUCUGCCGGUGAUGAAAAUAGGCAUGUGAAAAUAUCAACAGAGGAUUGAGCAUCA
# Molecular target: T1, UNK ZnF1-3 (human, UniProt Q9C0B0 31-174)
# T1 sequence: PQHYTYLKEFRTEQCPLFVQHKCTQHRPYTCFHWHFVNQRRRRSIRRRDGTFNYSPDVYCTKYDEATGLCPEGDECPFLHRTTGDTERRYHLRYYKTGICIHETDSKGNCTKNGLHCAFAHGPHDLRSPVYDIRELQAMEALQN
# Test: nsRBNS (natural sequence RNA bind-n-seq); RBNS binding buffer (assumed for nsRBNS): 25 mM Tris pH 7.5, 150 mM KCl, 3 mM MgCl2, 0.01% Triton X-100, 500 ug/ml BSA, 20 U/ml SUPERase-In, 4 C; UNK is unkempt and MSI1 is Musashi-1; names of the RNAs are library labels; protein concentration not given here; high values mean tight binding
row,Binder,binding signal [enrichment R]
1,B1,1.67
2,B2,1.35
3,B3,1.63
4,B4,1.13
5,B5,0.529
6,B6,0.449
